Results as given in PubChem BioAssay AID1963576 (National Center for Advancing Translational Sciences (NCATS), 2024).
Hit rate of the full screen: of about 46,000 compounds, about 60 (0.1%) were called active. Roughly 3% stayed inconclusive and do not appear here. Calls follow the shape of the dose curve; as a rule, active = well fitted inhibition curve with a large enough effect; inconclusive = small, poorly fitted or top-dose-only effect; inactive = no such curve, though single readings can be large or run the other way. This is one part of the list.

Assay: Primary qHTS assay for Inhibitors of ovarian cancer metastasis using an organotypic tumor microenvironment (TME) model. Also: nearly all actives have a fitted effect of over 65% in size.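 As to activity change, negative = inhibition: plate controls were DMSO wells for no effect and tomatine positive control wells for full effect.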
Settings: SKOV3ip1-GFP adhesion/invasion on 3D omental model, fluorescence; series mostly up to 45.8 µM; activity change, negative = inhibition: at the top concentration
Outline: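 Primary human omental fibroblast/mesothelial 3D culture pre-formed 48 h. SKOV3ip1-GFP cells added with compounds (0.36-46 umol/L), incubated 2 h RT/16 h 37 C, fixed; GFP cells quantified at 488/509 nm.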

Activity change, negative = inhibition, inactive:
CCCC(=O)Nc1cccc(OCc2cc(=O)n3cccc(C)c3n2)c1 5.31%
COCCCn1c(SCc2cccc(Cl)c2)nc2c(sc3ccccc32)c1=O -17.7%
CCOCCc1nn2c(=O)cc(COC(=O)c3ccccc3OC)nc2s1 6.61%
CCOC(=O)C1CCCN(C(=O)c2ccc3c(c2)sc2nc(-c4cccc(OC)c4)cn23)C1 (stereo not given) -9.69%
CCOc1ccc(Nc2nc(-c3cccc(Cl)c3)c3c(n2)-c2ccccc2OC3)cc1 -10.1%
COc1ccc(N(CC(=O)Nc2cccc(Cl)c2)S(=O)(=O)c2c(C)[nH]c(=O)[nH]c2=O)cc1 -2.43%
CCn1c(C)c(C)c2cc(C(=O)NCC(C)c3ccccc3)ccc21 (stereo not given) 6.72%
CCOCCc1nnc(NC(=O)C(=O)c2cc(C)n(-c3ccc(C)cc3C)c2C)s1 -1.05%
O=C(Nc1nc2c(F)cc(F)cc2s1)c1ccc(S(=O)(=O)N2CCc3ccccc32)cc1 -5.73%
COc1ccc(N2CCN(CCCNC(=O)C3COc4ccccc4C3)CC2)cc1 (stereo not given) 7.16%
O=C(Nc1ccc(F)cc1)Nc1csc2c1CCCC2 -22.7%
Cc1ccc(CNC(=O)CSc2nc3c(sc4ccccc43)c(=O)n2CCCC(=O)NCCO)cc1 22.5%
COC(=O)c1ccc(N2C(=O)Cc3cc(OC)c(OC)cc3C2c2ccc(F)cc2)cc1 (stereo not given) 2.82%
COc1cc(-c2nc3sccn3c2Nc2c(C)cccc2C)ccc1O 8.93%
Cn1ncc2c(N3CCN(c4ccc(F)cc4)CC3)ncnc21 2.34%
O=C(Cc1ccc(-c2ccccc2)cc1)NCCS(=O)(=O)N1CCN(c2ccc(F)cc2)CC1 -19.8%
Cc1c(CCNC(=O)c2c(F)cccc2F)sc2nc(-c3ccc(F)cc3)nn12 15.1%
O=C(Nc1nnc(-c2ccco2)o1)c1cc(-c2ccccc2)nc2ccccc12 -1.45%
CC(=O)N1CCCC1c1nc2ccccc2n1Cc1ccccc1Cl (stereo not given) -2.06%
CCn1c(C(=O)NCCc2ccc(S(N)(=O)=O)cc2)cc2sc(Cl)cc21 -0.841%
O=C1Cc2cc(S(=O)(=O)N3CCN(c4cccc(Cl)c4)CC3)ccc2N1 -5.4%
CCOC(=O)c1cnc2c(ccc3ccccc32)c1Nc1ccc(C(C)=O)cc1 -15.3%
Cc1cn(-c2cc(NC(=O)c3ccc(C)c(Nc4nccc(-c5cccnc5)n4)c3)cc(C(F)(F)F)c2)cn1 9.81%
Cc1cccc(OCc2nc(CC(=O)Nc3ccc(Cl)cc3)cs2)c1 -8.39%
CCC1CN(C(=O)N2CCC(C(=O)NCCc3ccc(OC)cc3OC)CC2)c2cc(C)ccc2O1 (stereo not given) -1.67%
Cc1cccc(C)c1-n1ncc(C(=O)NCCCN2CCC(C)CC2)c1C1CCN(C(=O)OC(C)(C)C)CC1 -5.63%
Cc1cc(Nc2ccc(Br)cc2)nc(C)n1 -22.5%
CCc1ccccc1NC(=O)C1CCN(S(=O)(=O)c2cn(C)cn2)CC1 -1.88%
CCOC(=O)c1sc2ccccc2c1S(=O)(=O)NCc1ccccc1OC 1.35%
Cc1cc(C)nc(-n2nc(C)c3c2N(Cc2ccccc2F)C(=O)CC3c2ccc(Cl)cc2)n1 (stereo not given) -11.1%
O=S(=O)(c1ccc(Cl)cc1)c1nc(-c2cccs2)oc1N1CCCCC1 -2.5%
COc1ccccc1CNC(=O)Cc1csc2nc(-c3ccc(F)cc3)cn12 -5.62%
CCc1ccc(S(=O)(=O)Nc2cccc(-c3ccc(N4CCCCC4)nn3)c2)s1 -0.386%
Cc1nnc(N2CCN(C(=O)NCCC(C)C)CC2)c2nn(-c3ccc(Cl)cc3)c(C)c12 -5.11%
O=C(Nc1sc2c(c1C(=O)NCc1ccco1)CCCC2)c1cc(=O)c2cc(Cl)ccc2o1 1.19%
CCC(=O)N1CCc2cc(Br)cc(S(=O)(=O)NCCc3cccc(C)c3)c21 -2.12%
COCc1nc2ccccc2n1Cc1ccc(C(C)(C)C)cc1 3.65%
CC(=O)Nc1ccc(NC(=O)c2ccc3c(c2)N(Cc2cccc(Cl)c2)C(=O)c2ccccc2S3=O)cc1 (stereo not given) -12.2%
Cc1ccc(Cn2c(=O)n(Cc3ccccc3)c(=O)c3oc4ccccc4c32)cc1 -10.2%
CC(=O)N1CCc2cc(S(=O)(=O)NC(Cc3ccccc3)C(=O)NCc3ccccc3)ccc21 (stereo not given) 8.92%
CC(=O)N1CCc2c(sc3c2c(=O)n(-c2ccccc2)c(=O)n3CC(=O)c2ccccc2)C1 20.6%
O=C(NC1CCN(Cc2ccccc2)CC1)c1ccc(Cn2c(=O)c3ccccc3n(Cc3ccc(Cl)cc3)c2=O)cc1 -9.49%
CC(=O)N1CCC(N(Cc2ccc(C)o2)C(=O)Nc2cccc(C(F)(F)F)c2)CC1 -7.61%

outcome, inactive:
Cc1cc(=O)n2nc(N(C)CC(=O)NCc3ccccc3C)sc2n1
CCc1ccccc1Nc1nn2c(=O)c3ccc(C(=O)NCCC4=CCCCC4)cc3nc2s1
Cc1ccccc1-c1noc(CSc2nc3ccccc3[nH]2)n1
COc1ccc2c(c1)c1c(c(=O)n(Cc3ccccc3)c(=O)n1CC(=O)Nc1ccccc1OC)n2C
O=C(c1ccc2c(Cl)c3c(nc2c1)CCCC3)N1CCN(c2ccc(Cl)cc2)CC1
CCN1C(C(=O)c2ccccc2)=C(OC(=O)COc2ccc(C)cc2)c2ccccc2S1(=O)=O
CCOc1ccc(-n2c(=O)c3c4c(sc3n(CC(=O)NC(C)CC)c2=O)CCCCC4)cc1 (stereo not given)
CCOc1ccc(CCn2c3c(c(=O)[nH]c2=O)C(NC(=O)c2cccc(F)c2)(C(F)(F)F)C(=O)N3)cc1OCC (stereo not given)
CC(=O)N1CCCc2ccc(NS(=O)(=O)c3cccc(Cl)c3)cc21
COc1cccc(CSc2nc3ccncc3n2CC(=O)Nc2ccc(OC)c(OC)c2OC)c1
COc1cccc(NC(=O)CCN2C(=O)c3ccccc3Sc3ncccc32)c1
CCc1cc2c(cc3c(=O)n(CC(=O)NC(C)c4ccccc4)ncn32)s1 (stereo not given)
O=C1C(c2ccc(F)cc2)N(CCc2ccc(Cl)cc2)C(=O)CN1C1CCCCC1 (stereo not given)
CCOc1cc(C(=O)Nc2cc3c(cc2N2CCCC2)n(C)c(=O)c(=O)n3C)cc(OCC)c1OCC
Cc1cccc(C(=O)Nc2cc3c(cc2C)n(C)c(=O)n3C)c1
COc1ccc(NC(=O)Nc2cc(-c3cn4cccnc4n3)ccc2C)cc1
Cc1ccc2c(c1)-c1nc(-c3ccc4c(c3)NC(=O)CO4)cc(-c3ccccc3)c1CO2
